In the supplement of paper PMC10126150:
Values marked as one replicate rest on one cluster of the flow cell; about a third of the high ones do not repeat.

Tested on: ATP
Experiment: switch fluorescence ratio, 500 uM ATP over buffer (Cy3 cluster intensity, sum of 5 cycles each) (fold (ratio)); higher = stronger signal-on switching upon ATP binding; sequences stand for … in TCGTCGGCAGCGTCAGATGTGTATAAGAGACAGTTTTTTTTTTTTTTTTTTTTTTTTT…TC
Conditions: aptamer strand: ATP DNA aptamer (quencher-CACCTGGGGGAGTATTGCGGAGGAAGG + anchor), 100 nM annealed; ATP concentration: 500 uM; one replicate
Procedure, shortened: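 Values give the fluorescence ratio for each switch-domain sequence, averaged from per-cluster ratios of summed target-cycle to summed buffer-cycle Cy3 intensity. The Cy3-labelled switching-strand clusters sat on a modified Illumina MiSeq flow-cell, were annealed to 100 nM quencher-labelled ATP aptamer, and were imaged in selection buffer, then after 15 min with 500 uM ATP at 22 °C. Five cycles ran with NaOH stripping and re-annealing between them, and clusters outside 100-1000 RFU were excluded.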
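Note: ATP exposure 15 min at 22 °C before imaging.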

GAGAATCCC
switch fluorescence ratio: 0.961

CGTGGTTGTG
switch fluorescence ratio: 0.999

GCTATACCCC
switch fluorescence ratio: 2.45

ATTGCAGGGT
switch fluorescence ratio: 0.947

GGCGGCGATA
switch fluorescence ratio: 1.04

GAGATATCCT
switch fluorescence ratio: 0.999

TCCGTTCGAC
switch fluorescence ratio: 1.72

TGAGCCACGA
switch fluorescence ratio: 1.06

TCATAGACAA
switch fluorescence ratio: 1.03

GCATTTCTTG
switch fluorescence ratio: 1.03

CGTCACCTGT
switch fluorescence ratio: 1

ACACACCAAT
switch fluorescence ratio: 1.15

ATTCCATTCA
switch fluorescence ratio: 1.03

AAGTATCCAC
switch fluorescence ratio: 1.05

CCAGGCCGGC
switch fluorescence ratio: 1.03

CACAGGGGTG
switch fluorescence ratio: 1.23

CAATATGCT
switch fluorescence ratio: 1.01

AACTTTGTAC
switch fluorescence ratio: 1.06

TATACCAGAG
switch fluorescence ratio: 1.04

CTTAATACTG
switch fluorescence ratio: 1.18

TGTCGCGGCT
switch fluorescence ratio: 0.993

TCTGATGAAA
switch fluorescence ratio: 1

AGCTGCCCGA
switch fluorescence ratio: 1.03

TTCTGACCAT
switch fluorescence ratio: 1.03

GATCTAGCG
switch fluorescence ratio: 0.948

CGATTTCCGC
switch fluorescence ratio: 1.4

AGATCCTAA
switch fluorescence ratio: 0.975

CCACTAGTTT
switch fluorescence ratio: 0.971

CCGAGACGCC
switch fluorescence ratio: 1.34

ACTGAGGAGC
switch fluorescence ratio: 1.02

TAAGCGTCCG
switch fluorescence ratio: 1.01

ATTGGGTTCG
switch fluorescence ratio: 1.02

GTTAAAGGTG
switch fluorescence ratio: 1.3

AGTATAGA
switch fluorescence ratio: 0.961

AAGGTACGAG
switch fluorescence ratio: 1.01

GTAAATCAA
switch fluorescence ratio: 1.01

GGATCCTTT
switch fluorescence ratio: 0.971

CAGCCGGTCG
switch fluorescence ratio: 0.992

TGTTTCGTAG
switch fluorescence ratio: 0.983

CAATTTGGTA
switch fluorescence ratio: 0.961

ATGGGCTTGT
switch fluorescence ratio: 0.989

TTTGGAGAC
switch fluorescence ratio: 1.13

CGCCTCTGAT
switch fluorescence ratio: 0.987

TTTGTGAAAA
switch fluorescence ratio: 1.03

TACACGTGGC
switch fluorescence ratio: 1.05

GTGACTTCCG
switch fluorescence ratio: 0.983

AGGAAAGAGG
switch fluorescence ratio: 0.998

TACATTAGGT
switch fluorescence ratio: 1.01

GTGGTATCT
switch fluorescence ratio: 1.02

GTGGTATTCT
switch fluorescence ratio: 0.944

GGCTTAGTTA
switch fluorescence ratio: 1.01

TCGTTGGTCT
switch fluorescence ratio: 0.959

ACTGTGATCC
switch fluorescence ratio: 1.06

ATGTTATCTG
switch fluorescence ratio: 0.929

CGGTGGATAC
switch fluorescence ratio: 1.29

CGATCCCTGT
switch fluorescence ratio: 1.06

CGGGGCCGCG
switch fluorescence ratio: 1.03

CGTTCCTACC
switch fluorescence ratio: 1.24

GAAAAGGAAA
switch fluorescence ratio: 0.972

CTTGGATCCC
switch fluorescence ratio: 0.962

GTACGGGGCT
switch fluorescence ratio: 1.01

CGAAAGGGAT
switch fluorescence ratio: 3.66

ACAGAATGCT
switch fluorescence ratio: 1

GATTTATTAC
switch fluorescence ratio: 1.08

TCGCAAAGGG
switch fluorescence ratio: 1.59

AGGGGGGTAG
switch fluorescence ratio: 0.97

TCTAGGACT
switch fluorescence ratio: 1.05

TTAGTTTGTA
switch fluorescence ratio: 1.01

TTATAGGGTC
switch fluorescence ratio: 0.999

CGCTTACTGG
switch fluorescence ratio: 1.25

AATGATGGTG
switch fluorescence ratio: 1.04

AATGTAATTT
switch fluorescence ratio: 1.02

GAGATGGTCC
switch fluorescence ratio: 1.04

GATAAACAGG
switch fluorescence ratio: 1.02

TCAGCCTCA
switch fluorescence ratio: 0.974

ATGCGCAACG
switch fluorescence ratio: 1.03

GGATGTCTAA
switch fluorescence ratio: 0.997

CGACAAAGGG
switch fluorescence ratio: 0.988

CGTTCGTTGA
switch fluorescence ratio: 1.03

GGCGGTTCGT
switch fluorescence ratio: 0.982

TGGACCCAAG
switch fluorescence ratio: 1.03

ACGTAGTCGG
switch fluorescence ratio: 1.02

ATGTATAGAT
switch fluorescence ratio: 0.973

TTGAAAGGCG
switch fluorescence ratio: 0.944

CCGCGTGCAG
switch fluorescence ratio: 1.05

GGAGTGGAGA
switch fluorescence ratio: 1.04

CTATCAGCGG
switch fluorescence ratio: 0.983

GGCATTGATG
switch fluorescence ratio: 0.998

GGAGTGGGGC
switch fluorescence ratio: 0.975

GGAGCTTATT
switch fluorescence ratio: 1.48

TCCGGGAGTA
switch fluorescence ratio: 1.12

GGAATTTGCC
switch fluorescence ratio: 0.983

ATTTATTTTG
switch fluorescence ratio: 1.08

TAATGCAGGG
switch fluorescence ratio: 0.99

TTACTGTCGT
switch fluorescence ratio: 0.962

ACTTCTAGAT
switch fluorescence ratio: 1.01

GCATTTCGGA
switch fluorescence ratio: 0.993

CGAGTACAAG
switch fluorescence ratio: 0.982

ATACACAGAC
switch fluorescence ratio: 1.27

GGCGCTGGGG
switch fluorescence ratio: 0.981

TCGAATTTCT
switch fluorescence ratio: 0.979
